Results reported in publication PMC4336329 (PLoS ONE, 2015).
About 14,000 (4.5%) of roughly 310,000 compounds showed an effect of 50% or more. The effect is printed as a negative number. This is one part of the list.

Target: human ether-à-go-go-related gene (hERG) potassium channel (human, UniProt Q12809)
Experiment: primary screen, population patch clamp on CHO cells stably expressing hERG
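Also: peak tail current of the secondary pulse compared with the same well before compound.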

Sequence of human ether-à-go-go-related gene (hERG) potassium channel (Q12809 whole entry, looked up): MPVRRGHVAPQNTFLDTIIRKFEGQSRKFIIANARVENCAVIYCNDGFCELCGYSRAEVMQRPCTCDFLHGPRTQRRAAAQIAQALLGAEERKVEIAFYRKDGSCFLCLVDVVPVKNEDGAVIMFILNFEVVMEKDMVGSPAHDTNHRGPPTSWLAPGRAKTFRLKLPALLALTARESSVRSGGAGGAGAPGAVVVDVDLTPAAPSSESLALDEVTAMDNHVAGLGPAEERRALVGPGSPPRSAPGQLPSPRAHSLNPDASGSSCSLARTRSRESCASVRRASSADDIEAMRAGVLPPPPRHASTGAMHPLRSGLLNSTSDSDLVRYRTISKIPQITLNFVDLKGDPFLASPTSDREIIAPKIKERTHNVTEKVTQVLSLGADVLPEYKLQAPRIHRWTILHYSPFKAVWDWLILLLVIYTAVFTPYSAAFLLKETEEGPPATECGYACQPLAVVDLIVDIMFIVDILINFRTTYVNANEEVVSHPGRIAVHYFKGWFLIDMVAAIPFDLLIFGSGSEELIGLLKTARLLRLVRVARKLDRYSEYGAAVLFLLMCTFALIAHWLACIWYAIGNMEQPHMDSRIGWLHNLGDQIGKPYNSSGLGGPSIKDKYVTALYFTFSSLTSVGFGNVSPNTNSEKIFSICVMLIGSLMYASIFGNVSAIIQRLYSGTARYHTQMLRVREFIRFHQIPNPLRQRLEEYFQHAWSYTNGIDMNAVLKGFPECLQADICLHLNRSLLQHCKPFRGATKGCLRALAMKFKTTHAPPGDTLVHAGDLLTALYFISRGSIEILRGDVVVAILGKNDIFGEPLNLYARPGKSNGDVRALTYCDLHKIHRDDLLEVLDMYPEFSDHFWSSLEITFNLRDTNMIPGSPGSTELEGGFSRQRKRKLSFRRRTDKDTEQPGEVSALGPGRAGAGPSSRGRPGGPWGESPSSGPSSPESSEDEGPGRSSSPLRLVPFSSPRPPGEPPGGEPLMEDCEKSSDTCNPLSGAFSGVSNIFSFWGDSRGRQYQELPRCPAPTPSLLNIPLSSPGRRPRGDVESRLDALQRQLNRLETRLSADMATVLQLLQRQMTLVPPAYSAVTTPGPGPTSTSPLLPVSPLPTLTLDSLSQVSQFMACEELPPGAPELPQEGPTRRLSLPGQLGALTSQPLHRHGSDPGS

| SMILES | hERG current change (%, negative = inhibition) at 10uM |
| --- | --- |
| Cn1c(=O)c2c(nc(NCCOc3ccc(C(C)(C)C)cc3)n2C)n(C)c1=O | -1.05% |
| NS(=O)(=O)c1ccc(CCNC(=O)COC(=O)C2CCN(c3ccc(C(F)(F)F)cn3)CC2)cc1 | -34.9% |
| CC1CCCCC1NC(=O)C1CCN(S(=O)(=O)c2ccc3c(c2)CCC(=O)N3)CC1 (centres unmarked) | 6.51% |
| COc1ccc(-c2cn(Cc3ccc(C(N)=O)cc3)c(CCN)n2)cc1 | -13.9% |
| CC(=O)c1c(O)cc(C(C)C)n(-c2ccccc2)c1=O | -3.24% |
| COc1ccc2c(c1O)-c1ccccc1CCN(C)C2.Cl | -0.905% |
| Cn1nnnc1SCC(=O)N1c2ccccc2Sc2ccc(Cl)cc21 | -16.4% |
| Cn1c(-c2ccccc2)cnc1SCC(N)=O | 9.16% |
| Cc1csc(Nc2ccccc2C(F)(F)F)n1 | 6.46% |
| Cc1nc(N/N=C/c2cccc(F)c2)cc(N2CCOCC2)n1 | -41.3% |
| Cc1cc(C)n(C(=O)CCC(=O)NCc2ccccc2)n1 | -0.152% |
| COCCNC(=O)COC(=O)c1cccnc1SC | 12.8% |
| Cc1nc(NC(=O)C2CC2)sc1C(=O)Nc1cccc(Cl)c1 | 22.8% |
| Cc1cccc(C)c1NC(=S)N(CCN1CCCCCC1)Cc1ccco1 | -34.9% |
| C=C(C)C(C)(C#CCN1CCCC1)OC(C)=O (centres unmarked) | -6.48% |
| CCNc1ccc(C(=O)OCC(=O)N(Cc2ccccc2)C(C)(C)C)cc1[N+](=O)[O-] | -6.04% |
| CN1CCN(CCC(=O)Nc2cccc(Br)c2)CC1 | -19% |
| CCOC(=O)CSC1=C(C#N)C(c2ccc(Cl)cc2)CC(=O)N1 (centres unmarked) | -1.8% |
| COCCN1C(=O)c2cc(C(=O)Nc3cccc(F)c3)ccc2C1Nc1cccc(F)c1 (centres unmarked) | 7.71% |
| CCC(C)(C)NC(=O)C(c1ccc(O)cc1)N(CCOC)C(=O)CCC(=O)Nc1nccs1 (centres unmarked) | 13.7% |
| Cc1ccc(OCCOC(=O)Nc2ccccc2)cc1 | 22.2% |
| CC(=O)c1sc(NC(=O)C2=NN(c3ccccc3)C(=O)CC2)nc1C | 1.66% |

| SMILES | hERG current change (%, negative = inhibition) at 10uM |
| --- | --- |
| CCCN(CC(=O)Nc1ccccc1OC)C(=O)c1cnc(Cl)c(Cl)c1 | 13% |
| CCN(CC(O)COCc1ccc(Cl)cc1)C1CCCCC1.Cl (centres unmarked) | -22.7% |
| CCOc1ccc(S(=O)(=O)Nc2cccc(C(=O)NCC(c3ccco3)N3CCCC3)c2)cc1 (centres unmarked) | -43.2% |
| Cc1cccc(SCc2noc(C(=O)NC(C)C)c2C(=O)O)c1 | 25.9% |
| CCCS(=O)(=O)N1CCCC(C(=O)NC2CCCC(C)C2C)C1 (centres unmarked) | 5.1% |
| O=C(CSc1nc(=O)n(CCCN2CCOCC2)c2c1CCCC2)Nc1cccc(F)c1 | -56.2% |
| COc1ccccc1C1=NN(C2=NN=C(N)Cc3ncnn32)C(O)(C(F)(F)F)C1 (centres unmarked) | 14.8% |
| Cc1cccc(C)c1OCC(=O)Nc1ccccc1C(=O)N1CCOCC1 | -0.32% |
| Nn1c(SCC(=O)N2CCOCC2)nnc1-c1ccccc1Cl | 10.5% |
| O=C(Nc1cc([N+](=O)[O-])ccc1O)c1ccc2c(c1)C(=O)N(Cc1ccco1)C2=O | 7.13% |
| Nc1c(C(=O)N/N=C/c2ccc(F)cc2)oc2nc(-c3ccccc3)cc(-c3ccco3)c12 | 22.2% |
| O=C(O)c1nccnc1C(=O)Nc1ccc(Oc2c(Cl)cccc2Cl)nc1 | -26.1% |
| O=C(Nc1cccc(Cl)c1)Nc1c[nH]c(=O)[nH]c1=O | 15.6% |
| CCc1ccccc1NC(=O)C1CCN(S(C)(=O)=O)CC1 | 8.86% |
| COc1cccc(NC(=O)CCNS(=O)(=O)c2cccc3nonc23)c1 | 13% |
| CCc1ccc(OCC(=O)NCC(c2ccc(Cl)cc2)N2CCCCC2)cc1 (centres unmarked) | -6.4% |
| O=c1[nH]n(CC2COC3(CCCCC3)O2)c(=O)c2ccccc12 (centres unmarked) | -5.75% |
| CCOc1ccc(NC(=O)CN(C)C(=O)c2c(C)nn(-c3ccc(F)cc3)c2Cl)cc1OCC | -16.7% |
| COc1ccc(N2CCN(C(=O)c3cc(=O)c4cc(Cl)ccc4o3)CC2)cc1 | -76.3% |
| O=C(CSc1ccc(Cl)cc1)Nc1ccccc1N1CCN(C(=O)c2ccccc2)CC1 | -14.9% |
| c1ccc(Cc2noc(CN3CCC(CN4CCOCC4)CC3)n2)cc1 | 4.64% |
| CCN(CC)S(=O)(=O)c1ccc(N2CC(C(=O)NCc3cccnc3)CC2=O)cc1 (centres unmarked) | -4.81% |
